Out of some 150,000 compounds screened, about 540 (0.36%) showed an effect of 50% or more. The list shows a part of the results.
Test system: Plasmodium falciparum
Experiment: Primary screen in NF54 nanoGlo assay, in single point, at 2uM, 72h; a lower Z score goes with more inhibition
Assay type: functional, Erythrocyte
Conditions: timepoint 72 hour

SMILES	% Inhibition	Z score
CN(Cc1nnc[nH]1)[C@H]1CCN(C(C)(C)C)C1=O	-4%	0.59
Cc1cccc(N2C(=O)N(CC(=O)OC(C)C)S(=O)(=O)c3cccnc32)c1	-13%	1.29
Cc1nc(N)sc1CC(=O)N[C@@H](C)C(C)(C)O	-1%	0.16
CCn1ncc(CNC(=O)N2CCO[C@@H](CCOC)C2)c1C	-11%	1.16
Cc1nc(C(C)C)ccc1C(=O)N[C@H](C)c1ncc[nH]1	1%	-0.13
COc1cc2c(cc1OC)C1(CCCC1)CN(C(=O)CN1CCOCC1)C2	-6%	1.06
CC(C)COC(=O)N1CCN(c2ccc(C(F)(F)F)nn2)CC1	-1%	0.12
COCc1noc(CNS(=O)(=O)c2cccnc2)n1	-13%	2.41
CC(=O)N1CCC([C@@H]2CN(C(=O)Nc3cc(C)ccc3C)C[C@H]2COc2ccccc2)CC1	8%	-0.92
Cc1oc(-c2ccccc2Cl)nc1CN1CCc2nnc(C(C)C)n2CC1	-1%	0.08
CNc1cc(C(=O)NCCCn2ccnc2)ccn1	-13%	1.16
O=C(C1CCCO1)N1CCCC1c1cccs1 (stereo unspecified)	-9%	0.96
CC(C)(CN1CCC(c2ncon2)CC1)N1CCOCC1	-8%	1.53
CC(C)(Oc1ccc2c(c1)CCC2)C(=O)NCc1ccon1	-17%	2.55
Cc1ncn(CCNC(=O)N2CCC[C@H](c3nc4c(C)cccc4[nH]3)C2)c1C	0%	-0.04
Cc1cc2c(cc1CN1CC[C@]3(O)CCN(C(=O)N(C)C)C[C@@H]3C1)OCO2	-5%	0.94
Cn1c(=O)n(C)c2cc([C@H]3CC(=O)Nc4cccc5c4c3cn5Cc3ccccc3)ccc21	3%	-0.65
O=C1CC[C@H](C(=O)NCC2CC3CCC2C3)N1 (stereo partly specified)	-15%	1.3
N[C@H]1CCCN(Cc2cnc(C3CCCCC3)nc2)CC1	-2%	0.33
CCCCOCCCNC(=O)c1ccccc1Cl	-7%	0.99
O=C(c1coc(-c2cccnc2)n1)N(CC(F)(F)F)C1CCC1	1%	-0.1

SMILES	% Inhibition	Z score
Cc1cc(CS(=O)(=O)c2ccc(F)cc2)no1	-1%	0.09
Cc1c(NC(=O)c2cccc3ccccc23)cccc1-c1nc2ncccc2o1	-9%	1.1
CN(C)C1CCN(C(=O)c2nc(CCc3ccccc3)n(-c3ccccc3)n2)CC1	-22%	2.16
CCCc1noc(CN(C)S(=O)(=O)N2CCC(COC)CC2)n1	-4%	0.82
CCn1nc(NC(=O)c2cc(C3CC3)nc3onc(-c4cccc(OC)c4)c23)cc1C	29%	-3.3
COc1ccc2nc(-c3ccc(NS(=O)(=O)c4c(C)cc(C)cc4C)c(C)c3)sc2c1	-14%	1.91
CCC(CC)(CC)C(=O)NC[C@@]12CNC[C@]1(C(F)(F)F)C2	-9%	1.82
CC[C@H](O)Cn1nc(-c2c[nH]c3ccccc23)nc1CN1CCCCC1=O	-2%	0.27
Nc1c(-c2ccccn2)nsc1C(=O)N1CCCC1	-12%	2.11
CCc1csc(CC2CCN(Cc3ncccn3)CC2)n1	-5%	1.07
COC(=O)c1ccc(NC(=O)N2CCC[C@H](c3nnn[nH]3)C2)cc1	5%	-0.93
CCC(C)C(NC(=O)c1ccc(Br)cc1)C(=O)Nc1nnc(-c2cccc(Br)c2)s1 (stereo unspecified)	-3%	0.45
Cc1cc(Cl)cc2c1N(C(=O)CN(C)S(=O)(=O)c1ccccc1)CCC2	-2%	0.19
O=C(Nc1ccccc1)OC1CCCC(NS(=O)(=O)c2ccc3c(c2)OCCO3)C1 (stereo unspecified)	-14%	2.57
Cc1nc(-c2ccccn2)n(Cc2nnnn2-c2ccccc2)n1	5%	-0.66
O=C(NCCOc1ccccc1)c1ccc(CN2CCOCC2)cc1	-10%	1.38
C[C@]1(c2ccc(S(N)(=O)=O)cc2)NC(=O)N(CC2CCCCC2)C1=O	2%	-0.27
CN1CC[C@@]2(CCC1=O)CN(C(=O)Nc1ccccc1Cl)CCN2C	-8%	1.24
CC(C)(C)OC(=O)N1CC(Cc2nc(C(C)(C)C)no2)C1	-5%	0.87
O=C(Cc1cccs1)N(Cc1cnc2ccccn12)c1ccccc1	-1%	0.1
Clc1ccccc1-c1nnc(-c2ccc(-n3ccnc3)nc2)o1	0%	0.03

SMILES	% Inhibition	Z score
O=C(c1ccc(F)cc1F)N1CCCN(CCC2OCCO2)CC1	-16%	2.06
O=C(NCC#CCN1CCc2ccccc2C1)c1ccc(=O)[nH]c1	-9%	0.98
COc1cccc2c1CC[C@]2(N)C(=O)NC1CCCC1	-8%	1.2
Cn1nc(-c2nc(C3CC3)no2)c2c1CCN(C(=O)Nc1ccccc1C(F)(F)F)C2	4%	-0.65
CCc1nn(C)c2c(=O)n(Cc3cccnc3)cnc12	-3%	0.41
CNC(=O)c1cnc(C=Cc2nccn2Cc2ccccc2)s1	-14%	2.67
C#CCN(C(=O)CN1C(=O)COc2ccccc21)C1CC1	-14%	2.07
Cc1[nH]c(=O)c(C#N)c(C)c1CCC(=O)N(C[C@H]1CCOC1)C1CC1	-14%	1.65
CCn1cc(C(=O)Nc2nnc(CCN(C)C)s2)cn1	0%	0.05
CC(=O)c1ccc(N2N=C(C)C3=S2N(c2ccc(C(C)=O)cc2)N=C3C)cc1	-31%	3.64
C#CCCC1(CCC(=O)N2CCN(CCOC)[C@@H](C)C2)N=N1	-10%	1.19
Cc1c[nH]c(CN(C)C(=O)c2cc3c(Cl)cccc3[nH]2)n1	-7%	1.17
Cc1nn2c(nc1=O)-c1ccccc1NC2C1CCC(C)(C(=O)O)C1(C)C (stereo unspecified)	-6%	0.87
CC(C)N(C)C(=O)c1c[nH]nc1-c1ccc(Cl)s1	-27%	2.72
O=C1[C@@H](N2CCc3ccc(F)cc32)CCN1C1CC1	-5%	0.74
COC(=O)[C@]1(NC(=O)c2cccc(Cl)c2F)C[C@@H](O)C1	1%	-0.17
O=C(CCc1nnn2c1CN(Cc1c[nH]c3ccccc13)CC2)N1CCCC1	-15%	2.81
C[C@@H](C(=O)Nc1nccs1)N(C)Cc1nccn1C(F)F	-6%	0.57
O=C(NCCc1nc2ccccc2[nH]1)c1ccc(CN2C(=O)CNC2=O)cc1	-20%	2.68
CCN(C[C@H]1CCCO1)C(=O)c1c[nH]nc1-c1ccccc1	-17%	2.18
O=S(=O)(Nc1nnc[nH]1)c1csc2ccc(Cl)cc12	22%	-2.5

SMILES	% Inhibition	Z score
O=C(c1ccc2c(c1)OCO2)N(Cc1cccs1)C1CCOCC1	-12%	1.91
c1ccc(-c2csc(Cc3nc(-c4cccs4)no3)n2)cc1	-16%	2.09
CCN(CC(=O)Nc1c(F)cccc1F)C(=O)c1cccnc1O	-29%	3.35
Cc1cnc(CN2C[C@]3(CCCN(C(=O)c4cccnn4)C3)CCC2=O)cn1	-21%	2.21
Cc1cc(C(=O)NCc2c[nH]c(=O)[nH]c2=O)c(C)n1C	-14%	1.87
O=C1[C@@H]2C[C@H](O)CCN2C(=O)CN1Cc1cccc2[nH]ccc12	-8%	1.11
O=C(NC(Cc1ccccc1Cl)c1ccccc1)N1CC2CCC1C(CO)C2 (stereo unspecified)	-5%	0.85
CN(C)C(=O)N1C[C@H]2CC[C@@H](C1)N(C(=O)c1cc(-c3ccccc3F)n[nH]1)C2	-5%	0.83
CC(=O)Oc1c(-c2ccc(NC(=O)c3ccccc3)cc2)c(-c2cccc(C)c2)nn1-c1ccc(C)cc1C	-23%	2.2
CCOC(=O)C1=C(c2ccccc2)S/C(=C2/C(=S)C(C)(C)N(C(=O)C(F)(F)F)c3cc(C)c(C)cc32)S1	-1%	0.16
COCCN(CC(=O)N1CCc2sccc2[C@@H]1COc1ccc(C(C)C)cc1)C(=O)c1ccc(F)cc1	-13%	1.69
O=c1c2ccccc2ncn1Cc1nc(-c2cn3ccccc3n2)no1	-11%	1.42
O=C(c1cc(F)cc(Cl)c1)N1C[C@@H]2CC[C@@H](C2)C1	-4%	0.52
CCn1ccnc1[C@H](CCc1ccccc1)OC(=O)c1csc(COC)n1	-10%	1.17
O=C(c1cccn2c(=O)c3ccc(Cl)cc3nc12)N1CCN(c2ccccc2)CC1	5%	-0.55
Cc1ccn2c(=O)cc(CN(C)Cc3cscn3)nc2c1	-2%	0.36
CCn1ncc(NC(=O)Cn2cc(-c3ncc(F)c(NC)n3)cn2)n1	-3%	0.36
Cc1ccc(NC(=O)Nc2ccc(C)c(Oc3ccc(C#N)cc3)c2)cc1Oc1ccc(C#N)cc1	5%	-0.54
CCc1cccc(C)c1NC(=O)C(=O)c1cccn1C	8%	-0.75
Cc1cc(S(=O)(=O)N(CCN(C)C)C2CCN(C)CC2)c(C)o1	-16%	1.43

— ChEMBL document CHEMBL4888484, “Replenishing the malaria drug discovery pipeline: Screening and hit evaluation of the MMV Hit Generation Library 1 (HGL1) against asexual blood stage Plasmodium falciparum ,using a nano luciferase reporter read-out” (2022)
